# Measured values as given in publication PMC4336329 (PLoS ONE, 2015).
# Among all 310,000 compounds or so, about 2,200 (0.71%) showed an effect of 50% or more. The effect is printed as a negative number. The list shows a part of the results.
# Molecular target: human ether-à-go-go-related gene (hERG) potassium channel (human, UniProt Q12809)
# Assay: primary screen, population patch clamp on CHO cells stably expressing hERG
# Sequence of human ether-à-go-go-related gene (hERG) potassium channel (Q12809 whole entry, looked up): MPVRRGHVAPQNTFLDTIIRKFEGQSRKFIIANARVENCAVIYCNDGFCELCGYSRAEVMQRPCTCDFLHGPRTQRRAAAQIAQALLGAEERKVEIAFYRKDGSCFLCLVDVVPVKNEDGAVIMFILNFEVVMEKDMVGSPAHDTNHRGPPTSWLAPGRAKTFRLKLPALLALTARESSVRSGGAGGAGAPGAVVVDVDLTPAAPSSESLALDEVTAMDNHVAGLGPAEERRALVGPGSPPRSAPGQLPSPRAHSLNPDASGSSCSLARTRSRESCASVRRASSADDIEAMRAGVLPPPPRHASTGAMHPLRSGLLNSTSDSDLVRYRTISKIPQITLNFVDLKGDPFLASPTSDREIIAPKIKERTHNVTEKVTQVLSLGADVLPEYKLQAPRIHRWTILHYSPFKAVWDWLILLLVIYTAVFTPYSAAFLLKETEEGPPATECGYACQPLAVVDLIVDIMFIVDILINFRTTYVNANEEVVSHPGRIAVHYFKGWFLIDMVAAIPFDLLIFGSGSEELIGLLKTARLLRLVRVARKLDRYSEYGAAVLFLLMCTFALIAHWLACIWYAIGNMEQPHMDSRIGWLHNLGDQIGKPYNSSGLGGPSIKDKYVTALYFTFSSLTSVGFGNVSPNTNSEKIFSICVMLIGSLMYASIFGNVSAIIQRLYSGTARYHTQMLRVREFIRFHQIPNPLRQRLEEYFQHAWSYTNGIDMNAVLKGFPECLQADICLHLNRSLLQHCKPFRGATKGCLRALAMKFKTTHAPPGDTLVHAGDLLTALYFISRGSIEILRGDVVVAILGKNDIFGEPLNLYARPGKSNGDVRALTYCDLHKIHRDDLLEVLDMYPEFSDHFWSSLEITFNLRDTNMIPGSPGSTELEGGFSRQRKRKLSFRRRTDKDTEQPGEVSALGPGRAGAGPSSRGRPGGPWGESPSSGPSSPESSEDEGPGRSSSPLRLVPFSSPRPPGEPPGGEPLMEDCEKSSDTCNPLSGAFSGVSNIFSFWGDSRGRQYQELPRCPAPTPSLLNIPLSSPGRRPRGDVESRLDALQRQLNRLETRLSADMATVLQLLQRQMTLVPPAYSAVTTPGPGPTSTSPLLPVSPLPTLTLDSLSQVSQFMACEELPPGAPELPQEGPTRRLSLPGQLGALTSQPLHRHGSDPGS
row,Structure (SMILES),"hERG current change (%, negative = inhibition) at 1uM [%]"
1,Cc1cc(C)c(C2=Nn3c(C)nnc3SC2C)cc1C (stereo not shown),7.4
2,O=C(CN(Cc1ccccc1F)C(=O)c1csnn1)NC1CCCCC1,16
3,CCOc1ccc(OCCNC(=O)C(NC(=O)c2c(F)cccc2F)C(C)C)cc1 (stereo not shown),1.29
4,O=C(Cc1ccc(Cl)cc1)NCCS(=O)(=O)N1CCN(c2ccccc2)CC1,12.5
5,CCOC(=O)N1CCN(C(=O)Cn2cc3c(n2)CCCC3)CC1,-51.2
6,CCN1C(=O)C(=O)N(CC(=O)Nc2ccccc2Oc2ccccc2)C1=O,12.5
7,CCC(=O)NCCCCCCCCCNC(=O)CC,12.7
8,O=C(CCNC(=O)C1CCN(S(=O)(=O)c2ccccc2)CC1)NCc1cccc(C(F)(F)F)c1,0.801
9,NCCCNC(=O)c1cc2ccccc2[nH]1,6.97
10,COc1ccc(OC)c(Cc2nnc(CCC(=O)NC3CCCCCCC3)o2)c1,1.28
11,CC(C)NC(=O)NC(=O)COC(=O)c1cccc(OC(F)F)c1,14.4
12,COc1ccc(-c2csc(NC(=O)c3cc(-c4cccs4)nc4ccccc34)n2)c(OC)c1,6.28
13,O=C(CN1C(=O)/C(=C\c2cccs2)SC1=S)Nc1cccc(C(=O)O)c1,5.87
14,CC(Sc1nnc2ccccn12)C(=O)NCc1ccc2c(c1)OCO2 (stereo not shown),10.1
15,Cc1nnc(SCC(N)=O)n1CC1CCCO1 (stereo not shown),10.8
16,Cc1ccccc1COC[C@H](CC(C)C)N1CCN(C(=O)c2cccc(C(F)(F)F)c2)CCC1=O,7.72
17,O=C(CSc1nc(O)cc(=O)n1-c1ccccc1)Nc1nc2ccccc2s1,16.7
18,COc1ccc(C(=O)OCC(=O)N2C(C)CCCC2C)cc1[N+](=O)[O-] (stereo not shown),4
19,C/C(CCN1CCc2nc(-c3ccccc3)c(-c3ccccc3)cc2C1)=N\O[C@H](C)c1cn([C@H](CO)Cc2ccccc2)nn1,8.94
20,CC(C)NC(=O)c1ccccc1S(=O)(=O)c1ccccc1C#N,8.26
21,CCOc1cc(/C=N/Nc2nc(Nc3ccccc3)nc(N3CCCCC3)n2)ccc1OCC(=O)O,9.97
22,O=C(N/N=C/c1ccncc1)c1cc(-c2ccc(Br)s2)[nH]n1,6.66

row,Structure (SMILES),"hERG current change (%, negative = inhibition) at 1uM [%]"
1,Cc1cc(C)n(-c2cc(-c3ccccc3)nc(C)n2)n1,4.71
2,C/C(CC(=O)NC1CCCCCC1)=N\NC(=O)c1cnccn1,5.31
3,CN1CCN(CC#CC2(O)CCCCC2)CC1,12.9
4,O=C(CCCN1C(=O)c2cccnc2C1=O)Nc1ccc(Br)cc1,2.56
5,CCSc1nnc(CCNC(=O)OC(C)(C)C)o1,9.54
6,COc1ccc(NC(=O)CN(C)C(=O)/C=C/c2cn(-c3ccccc3)nc2-c2ccc(C)cc2)cc1,13.2
7,C=CCn1c(SCC(=O)Nc2ccccc2OC)nnc1-c1ccccn1,3.16
8,CC(=O)NC1(c2ccccc2)CCN(CC(=O)N2CCC(C)CC2)CC1,17.1
9,Cn1c(CSCc2ccc(F)cc2)n[nH]c1=S,13.6
10,Cc1cc(NC(=O)CSc2nc(=O)n3cccc(C)c3n2)no1,12.7
11,Cc1nc2sc3c(O)cc(=O)[nH]c3c2c(C)c1C,1.26
12,Cc1cc(C)cc(N(CC(=O)NC2CCCC2)S(=O)(=O)c2c(C)[nH]c(=O)[nH]c2=O)c1,11.1
13,COc1ccc(C2CC(=O)C3=C(C2)Nc2ncnn2C3c2ccccc2C)cc1 (stereo not shown),-1.48
14,CCCC(C)NC(=O)/C=C/c1cccc([N+](=O)[O-])c1 (stereo not shown),10.3
15,O=C(CSc1ncn[nH]1)c1ccco1,13.2
16,CN(C)C(=O)CCc1nc(-c2ccc(C(C)(C)C)cc2)no1,-5.5
17,COc1ccc(NC(=O)CSc2nnc(-c3cc(C)[nH]n3)n2N)cc1,15.9
18,O=C(NCC1CCCO1)C(c1ccc(F)cc1)N(Cc1ccc(F)cc1)C(=O)Cn1nnc(-c2cccs2)n1 (stereo not shown),-6.35
19,O=[N+]([O-])c1ncn(C23CC4CC(CC(C4)C2)C3)n1,10.8
20,CNC(=O)CS(=O)CC(=O)Nc1cc(OCCOC)c(Cl)cc1Cl (stereo not shown),6.96
21,CC(=O)Nc1ccc(OCc2ccc(S(=O)(=O)Cc3ccccc3)cc2)cc1,11.9
22,CCCCN(C(=O)C1CC(=O)N(Cc2ccc(C)cc2)C1)c1c(N)n(CC(C)C)c(=O)[nH]c1=O (stereo not shown),13.2

row,Structure (SMILES),"hERG current change (%, negative = inhibition) at 1uM [%]"
1,C[C@@H]1CC=C[C@H]2[C@H]1C(=O)N(Cc1ccccc1)[C@H]2c1ccc(-c2cc3ccccc3s2)cc1F,6.66
2,OC(CNCCNc1ncccc1C(F)(F)F)Cn1ccc2ccccc21 (stereo not shown),-6.1
3,Cc1nn(Cc2ccc(Cl)c(Cl)c2)c(C)c1NC(=O)c1cc(-c2ccco2)on1,11.1
4,Cc1cc(C(=O)CN2C(=O)NC3(CCCc4ccccc43)C2=O)c(C)n1C (stereo not shown),0.755
5,O=S(=O)(c1cc(Br)ccc1Br)N1CCCCCC1,15.1
6,O=c1[nH]c(CSc2nc3ccccc3s2)nc2ccccc12,0.35
7,COc1ccc(CC(=O)OCCN(C)C)cc1.Cl,12.9
8,Cc1sc2nc(CN(C(=O)NCc3ccccc3)C3CCCC3)[nH]c(=O)c2c1C,7.09
9,COc1ccc(C(C[N+](=O)[O-])n2nc(C)cc2C)cc1 (stereo not shown),12
10,O=C(CSc1nc2ccccc2s1)N/N=C/c1cc([N+](=O)[O-])ccc1O,14
11,CCOC(=O)c1[nH]c(C)c(C(=O)NC2CCCCCC2)c1C,1
12,N#CCC(=O)Nc1ccc(C(=O)OCC(=O)NCCCc2ccccc2)cc1,17.2
13,Cc1[nH]c2ccccc2c1C(=O)C(=O)N1CCN(c2ccccc2Cl)CC1,12
14,Cc1[nH]c2c(C)cccc2c1CC(=O)O,19.3
15,COc1ccccc1N1CCN(CCCCCCOc2ccc(F)cc2)CC1,-7.53
16,O=C(CCC(=O)N(CC(=O)NC1CCCC1)Cc1ccc2c(c1)OCO2)Nc1nccs1,2.19
17,COC(=O)c1ccccc1NC(=O)CN(c1c(C)cccc1C)S(C)(=O)=O,11.6
18,CCOC(=O)[C@H]1[C@H]2COc3ccc(OC)cc3[C@@H]2N2C(=O)c3cc(OC)c(OC)cc3NC(=O)[C@@]12C,5.4
19,COC/C=C/C1=CC2=CC(=O)C(C)(OC(=O)c3cnc4ccccc4n3)C(=O)C2=CN1CCCCO (stereo not shown),0.707
20,CCN(CC)C(=O)c1ccc(O)c(OC)c1,18.1
21,COc1cc(/C=C2\C=CC(=O)O2)cc(OC)c1,12.2
22,CCC(CC)C(=O)c1c[nH]c(C(=O)NCCc2ccccn2)c1,5.3

row,Structure (SMILES),"hERG current change (%, negative = inhibition) at 1uM [%]"
1,O=C(N1CCOCC1)C(F)(F)C(=O)N1CCOCC1,6.35
2,COC(=O)c1ccc(NC(=S)N2CCCC2)cc1,3.26
3,COc1ccnc(Oc2cccc(C(F)(F)F)c2)c1C(=O)N/C=N/OCc1ccccc1F,18
4,CCN(CC)CC.CN1C(=O)/C(=C2/C=Cc3ccccc3N2CCCS(=O)(=O)O)SC1=S,-2.02
5,Cc1ccc(-c2noc(CCCC(=O)NC3CCCC3)n2)cc1,13.3
6,CC(C)(C)c1cc(C(=O)NNC(=O)c2ccc(Cl)cc2)no1,10.2
7,COc1cccc2cc(C(=O)c3ccc([N+](=O)[O-])cc3)oc12,4.82
8,CCCCOC(=O)Nc1nnc(COc2ccccc2)s1,-1.57
9,Cc1ccc(-c2csc3ncnc(-n4nnc5ccccc54)c23)cc1,3.11
10,COc1ccc(-c2noc(N3CCC(C(=O)N4CCN(c5ccccn5)CC4)CC3)n2)cc1,-1.78
11,C=CC[C@@H]1C=C(C)C[C@H](C)C[C@H](OC)[C@H]2O[C@@](O)(C(=O)C(=O)N3CCCC[C@H]3C(=O)O[C@H](/C(C)=C/[C@@H]3CC[C@@H](O)[C@H](OC)C3)[C@H](C)[C@@H](O)CC1=O)[C@H](C)C[C@@H]2OC,11.6
12,COc1ccc(CN2C(=O)c3cccc4cccc(c34)C2=O)cc1,5.18
13,C=CCOc1ccccc1/C=c1\sc2nc(=O)c(C)nn2c1=O,-8.97
14,Cc1cccc(NC(=O)c2ccc(-n3ccnc3)nc2)c1,4.79
15,Cc1ccccc1N(CC(=O)NCCSCc1ccco1)S(C)(=O)=O,10.4
16,CCOC(=O)/C=C1\SCC(=O)N1Cc1ccc(Br)cc1,10.1
17,CC(C)CNC(=O)CCCSc1nc2ccccc2[nH]1,-1.54
18,CCc1c(C)sc2nc(SCC(=O)Nc3cc(C)on3)n(CCOC)c(=O)c12,2.29
19,CCOc1ccc(S(=O)(=O)NCCC(=O)NCc2ccccn2)cc1,2.3
20,COc1ccc(Cc2nnc(NC(=O)C(C)(C)C)s2)cc1,9.59
21,CCn1c(CN2CCCCCC2=O)nnc1SCc1cnc(-c2ccccc2)s1,3.61
22,c1ccc(-c2cn(-c3ccccc3)c3ncnc(NCCCN4CCOCC4)c23)cc1,-18.7
